The record followed here is publication PMC4605303.

The chains behind the UniProt entries cited, without tags or fusion partners. Where a name states a change or a piece, a line headed by the entry shows the natural chain unless it says otherwise.
UniProt Q8WWY3: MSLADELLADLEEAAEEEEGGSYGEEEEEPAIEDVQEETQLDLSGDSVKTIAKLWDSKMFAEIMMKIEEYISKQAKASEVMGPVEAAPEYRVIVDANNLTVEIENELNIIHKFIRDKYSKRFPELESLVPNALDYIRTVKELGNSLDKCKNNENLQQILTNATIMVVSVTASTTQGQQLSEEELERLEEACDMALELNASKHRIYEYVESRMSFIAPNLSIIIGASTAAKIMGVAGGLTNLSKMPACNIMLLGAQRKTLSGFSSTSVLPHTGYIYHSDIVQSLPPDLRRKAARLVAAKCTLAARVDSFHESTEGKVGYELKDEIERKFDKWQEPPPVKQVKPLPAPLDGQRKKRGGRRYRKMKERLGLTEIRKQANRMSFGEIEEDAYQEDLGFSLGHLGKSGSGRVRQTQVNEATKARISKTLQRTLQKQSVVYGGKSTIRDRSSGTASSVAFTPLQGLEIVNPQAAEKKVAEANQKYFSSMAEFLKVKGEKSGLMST
UniProt Q9UHK0: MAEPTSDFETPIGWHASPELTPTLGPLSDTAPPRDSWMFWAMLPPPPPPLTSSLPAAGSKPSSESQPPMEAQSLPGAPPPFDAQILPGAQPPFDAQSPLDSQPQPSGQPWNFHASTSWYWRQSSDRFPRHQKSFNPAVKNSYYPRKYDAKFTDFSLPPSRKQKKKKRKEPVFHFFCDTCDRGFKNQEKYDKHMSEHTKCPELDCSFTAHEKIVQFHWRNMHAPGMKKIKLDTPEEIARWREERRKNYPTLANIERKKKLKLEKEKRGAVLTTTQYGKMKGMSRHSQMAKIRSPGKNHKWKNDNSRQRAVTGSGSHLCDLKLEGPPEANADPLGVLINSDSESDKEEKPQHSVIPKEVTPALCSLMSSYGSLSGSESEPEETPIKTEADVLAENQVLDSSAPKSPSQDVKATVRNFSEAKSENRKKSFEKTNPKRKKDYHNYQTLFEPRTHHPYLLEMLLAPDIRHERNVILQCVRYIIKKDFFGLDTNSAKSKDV
UniProt O14893: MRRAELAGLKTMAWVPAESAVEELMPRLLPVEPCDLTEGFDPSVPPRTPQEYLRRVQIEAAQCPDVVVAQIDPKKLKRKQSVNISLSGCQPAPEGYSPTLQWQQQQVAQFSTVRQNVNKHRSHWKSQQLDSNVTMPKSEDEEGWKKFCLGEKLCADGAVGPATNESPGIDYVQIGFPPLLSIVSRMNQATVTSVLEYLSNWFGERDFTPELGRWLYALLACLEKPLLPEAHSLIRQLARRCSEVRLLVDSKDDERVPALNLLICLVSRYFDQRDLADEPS
UniProt Q8WXD5: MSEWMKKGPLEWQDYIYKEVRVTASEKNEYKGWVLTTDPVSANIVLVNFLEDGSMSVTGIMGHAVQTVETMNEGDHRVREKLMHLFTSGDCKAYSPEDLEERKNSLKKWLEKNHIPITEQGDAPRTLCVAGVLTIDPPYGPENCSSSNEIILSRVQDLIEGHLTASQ
UniProt P57678: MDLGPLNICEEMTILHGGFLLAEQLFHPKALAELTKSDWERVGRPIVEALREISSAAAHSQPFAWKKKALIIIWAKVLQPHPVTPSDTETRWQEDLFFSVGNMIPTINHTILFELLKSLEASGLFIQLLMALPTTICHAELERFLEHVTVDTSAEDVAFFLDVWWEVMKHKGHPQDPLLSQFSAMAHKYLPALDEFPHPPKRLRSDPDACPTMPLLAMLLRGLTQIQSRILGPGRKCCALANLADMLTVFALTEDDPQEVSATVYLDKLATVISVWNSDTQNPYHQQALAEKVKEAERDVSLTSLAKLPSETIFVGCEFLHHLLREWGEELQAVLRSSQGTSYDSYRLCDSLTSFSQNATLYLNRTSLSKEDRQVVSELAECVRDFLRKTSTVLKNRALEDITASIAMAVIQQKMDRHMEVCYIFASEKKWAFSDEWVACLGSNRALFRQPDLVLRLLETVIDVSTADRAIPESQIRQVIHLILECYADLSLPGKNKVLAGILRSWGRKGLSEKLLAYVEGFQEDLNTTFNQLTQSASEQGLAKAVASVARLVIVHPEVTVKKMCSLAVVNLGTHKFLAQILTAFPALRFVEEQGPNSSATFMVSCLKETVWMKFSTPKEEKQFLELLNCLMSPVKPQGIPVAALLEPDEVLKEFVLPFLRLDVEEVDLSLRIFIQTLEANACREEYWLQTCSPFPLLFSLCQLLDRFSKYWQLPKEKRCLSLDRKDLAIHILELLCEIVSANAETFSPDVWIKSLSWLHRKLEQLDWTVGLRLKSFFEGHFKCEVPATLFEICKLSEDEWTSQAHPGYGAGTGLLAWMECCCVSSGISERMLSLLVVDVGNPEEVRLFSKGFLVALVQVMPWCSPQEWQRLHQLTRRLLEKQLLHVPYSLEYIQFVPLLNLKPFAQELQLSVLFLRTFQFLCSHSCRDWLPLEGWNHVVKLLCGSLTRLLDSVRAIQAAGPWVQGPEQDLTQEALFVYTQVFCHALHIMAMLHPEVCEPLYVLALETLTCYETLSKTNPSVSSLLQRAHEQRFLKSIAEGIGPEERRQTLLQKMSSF
UniProt Q9UHI6: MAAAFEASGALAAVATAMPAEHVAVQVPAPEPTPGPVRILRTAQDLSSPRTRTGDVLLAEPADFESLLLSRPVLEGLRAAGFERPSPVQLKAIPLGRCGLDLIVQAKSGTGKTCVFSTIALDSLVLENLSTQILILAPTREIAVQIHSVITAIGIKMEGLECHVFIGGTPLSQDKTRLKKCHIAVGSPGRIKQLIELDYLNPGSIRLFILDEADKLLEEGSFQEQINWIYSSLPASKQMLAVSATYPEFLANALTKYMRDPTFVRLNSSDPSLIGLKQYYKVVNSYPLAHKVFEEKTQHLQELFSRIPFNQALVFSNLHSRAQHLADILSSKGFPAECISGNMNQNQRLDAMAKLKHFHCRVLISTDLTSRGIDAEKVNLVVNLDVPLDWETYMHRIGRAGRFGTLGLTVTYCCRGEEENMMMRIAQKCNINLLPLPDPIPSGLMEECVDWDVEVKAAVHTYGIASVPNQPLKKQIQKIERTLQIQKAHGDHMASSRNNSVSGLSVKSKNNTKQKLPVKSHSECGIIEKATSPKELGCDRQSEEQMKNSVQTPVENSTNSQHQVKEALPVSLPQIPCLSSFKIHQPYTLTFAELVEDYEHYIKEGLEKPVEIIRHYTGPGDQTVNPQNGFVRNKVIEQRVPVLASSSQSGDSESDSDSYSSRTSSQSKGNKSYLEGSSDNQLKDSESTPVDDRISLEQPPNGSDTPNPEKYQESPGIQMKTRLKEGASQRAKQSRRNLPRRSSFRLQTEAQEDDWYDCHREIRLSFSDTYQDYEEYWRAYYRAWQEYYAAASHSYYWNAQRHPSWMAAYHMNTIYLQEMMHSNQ
UniProt Q9Y265: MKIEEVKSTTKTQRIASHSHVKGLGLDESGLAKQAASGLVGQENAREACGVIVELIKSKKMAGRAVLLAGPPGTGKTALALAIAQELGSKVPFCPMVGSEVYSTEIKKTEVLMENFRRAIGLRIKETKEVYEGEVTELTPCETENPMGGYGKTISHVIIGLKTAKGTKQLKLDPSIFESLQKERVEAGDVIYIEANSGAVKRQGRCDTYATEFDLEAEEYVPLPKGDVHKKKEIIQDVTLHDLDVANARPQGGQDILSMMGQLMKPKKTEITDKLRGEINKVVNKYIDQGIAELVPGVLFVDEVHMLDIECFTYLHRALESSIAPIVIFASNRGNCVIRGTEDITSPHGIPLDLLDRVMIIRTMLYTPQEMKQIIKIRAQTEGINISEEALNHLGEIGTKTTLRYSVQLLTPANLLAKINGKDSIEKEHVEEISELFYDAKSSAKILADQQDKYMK
UniProt Q12464: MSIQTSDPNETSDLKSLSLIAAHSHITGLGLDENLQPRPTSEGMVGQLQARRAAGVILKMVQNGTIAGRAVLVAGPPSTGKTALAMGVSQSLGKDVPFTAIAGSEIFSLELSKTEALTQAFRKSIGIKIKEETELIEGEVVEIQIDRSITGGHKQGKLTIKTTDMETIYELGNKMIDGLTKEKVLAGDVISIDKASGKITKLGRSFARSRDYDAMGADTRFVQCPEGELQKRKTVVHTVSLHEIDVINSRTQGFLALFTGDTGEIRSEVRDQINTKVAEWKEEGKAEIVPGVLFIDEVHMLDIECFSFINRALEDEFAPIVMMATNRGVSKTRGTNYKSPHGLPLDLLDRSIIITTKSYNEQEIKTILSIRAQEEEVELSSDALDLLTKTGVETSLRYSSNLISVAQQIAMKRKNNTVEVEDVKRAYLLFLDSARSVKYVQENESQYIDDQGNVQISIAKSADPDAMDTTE
UniProt Q03940: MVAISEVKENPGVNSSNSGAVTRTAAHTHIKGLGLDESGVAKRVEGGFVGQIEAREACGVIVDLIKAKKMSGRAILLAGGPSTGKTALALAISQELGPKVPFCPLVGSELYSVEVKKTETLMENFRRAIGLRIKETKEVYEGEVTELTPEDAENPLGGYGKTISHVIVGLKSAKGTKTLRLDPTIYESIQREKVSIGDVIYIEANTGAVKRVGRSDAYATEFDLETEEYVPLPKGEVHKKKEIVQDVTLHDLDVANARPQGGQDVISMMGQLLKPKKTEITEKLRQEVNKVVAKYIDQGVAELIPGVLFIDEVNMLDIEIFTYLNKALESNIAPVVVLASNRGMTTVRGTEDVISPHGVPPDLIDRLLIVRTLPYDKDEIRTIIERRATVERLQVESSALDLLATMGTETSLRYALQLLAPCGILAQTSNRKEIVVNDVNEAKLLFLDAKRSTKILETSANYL
UniProt Q16637: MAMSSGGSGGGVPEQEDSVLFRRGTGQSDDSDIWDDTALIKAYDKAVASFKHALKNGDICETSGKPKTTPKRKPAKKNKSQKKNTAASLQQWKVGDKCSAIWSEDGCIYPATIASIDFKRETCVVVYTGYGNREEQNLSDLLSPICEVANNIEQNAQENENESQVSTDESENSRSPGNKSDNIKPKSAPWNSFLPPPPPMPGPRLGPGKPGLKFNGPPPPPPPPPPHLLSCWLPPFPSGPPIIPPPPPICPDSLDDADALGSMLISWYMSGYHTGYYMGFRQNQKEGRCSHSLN

The target of assay [1] is GFP-PRP31 K243A-A246R (human) (UniProt Q8WWY3). As to the kind of experiment: co-IP; GFP-Trap immuno-precipitation of 293T cells transfected with GFP-PRP31 fusions; HNTG buffer, 2 h at 4°C; western blot of endogenous proteins.
Assay [2] addresses GFP-PRP31, wild type (human) (UniProt Q8WWY3). The description is as above.
For assay [3], the target named is GFP-PRP31 A216P (human) (UniProt Q8WWY3). The assay is described as above.
The target in assay [4] is T1, yeast Prp31 (Prp31p), wild type (yeast) (UniProt P49704).
T1 sequence: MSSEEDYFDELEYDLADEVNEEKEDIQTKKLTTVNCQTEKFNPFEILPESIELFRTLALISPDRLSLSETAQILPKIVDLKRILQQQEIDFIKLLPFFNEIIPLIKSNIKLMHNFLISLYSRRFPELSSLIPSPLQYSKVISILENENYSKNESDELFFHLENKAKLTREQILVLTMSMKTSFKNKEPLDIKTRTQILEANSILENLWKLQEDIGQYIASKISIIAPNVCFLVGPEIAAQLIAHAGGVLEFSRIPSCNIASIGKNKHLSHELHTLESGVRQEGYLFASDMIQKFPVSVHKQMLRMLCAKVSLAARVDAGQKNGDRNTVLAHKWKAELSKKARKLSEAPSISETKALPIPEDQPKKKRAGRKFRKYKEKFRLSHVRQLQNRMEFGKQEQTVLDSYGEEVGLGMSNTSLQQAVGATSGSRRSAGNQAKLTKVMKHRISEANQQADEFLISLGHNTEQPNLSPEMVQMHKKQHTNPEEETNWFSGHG
Put plainly: two-hybrid; yeast Prp31 (wild type and mutants) against Rsa1, Pih1, Rvb1, Rvb2, Hit1; CG1945 mated with Y187, diploids on -Leu-Trp-His plates containing 1.5 mM 3AT; wild-type strains.

In assay [5] the target is T2, yeast Prp31p A226P (yeast) (UniProt P49704).
T2 sequence: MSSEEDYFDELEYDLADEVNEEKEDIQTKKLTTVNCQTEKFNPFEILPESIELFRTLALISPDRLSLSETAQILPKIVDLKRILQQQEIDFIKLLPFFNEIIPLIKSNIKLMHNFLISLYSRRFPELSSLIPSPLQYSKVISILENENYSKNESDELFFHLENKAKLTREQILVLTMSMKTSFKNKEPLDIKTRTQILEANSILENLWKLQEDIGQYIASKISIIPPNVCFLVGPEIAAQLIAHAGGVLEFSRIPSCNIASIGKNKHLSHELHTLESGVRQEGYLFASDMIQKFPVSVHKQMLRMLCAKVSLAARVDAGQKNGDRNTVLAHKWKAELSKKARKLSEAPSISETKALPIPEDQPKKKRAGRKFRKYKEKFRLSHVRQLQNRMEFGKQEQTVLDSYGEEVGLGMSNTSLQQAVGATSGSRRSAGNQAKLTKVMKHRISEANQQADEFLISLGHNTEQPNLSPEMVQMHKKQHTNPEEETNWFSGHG
The assay is described as above.

Assay [6] addresses GST-NUFIP, recombinant (human) (UniProt Q9UHK0). Put plainly: pull-down; 4 μg GST-NUFIP or GST on glutathione-Sepharose beads, incubated with E. coli total extracts in RSB 200 buffer treated with RNase A, 1 h at 4°C; western blot; only the target purified. (In western blotting, separated proteins are transferred to a membrane and probed.)
For assay [7], the target named is SMN complex, native, affinity purified through Flag-tagged Gemin2 (not stated | human (endogenous in HeLa)) (UniProt O14893).
For assay [8], the target named is Gemin6, two-hybrid bait (UniProt Q8WXD5). Put plainly: two-hybrid; pACTII-NUFIP as prey, components of the SMN complex as bait; medium lacking histidine with increasing 3-AT.
The target of assay [9] is Gemin4, two-hybrid bait (UniProt P57678). Described as above.
The target in assay [10] is Gemin3, two-hybrid bait (UniProt Q9UHI6). The assay is described as above.
Assay [11] concerns the target T3, GFP-ZNHIT3 (human) (UniProt Q15649).
T3 sequence: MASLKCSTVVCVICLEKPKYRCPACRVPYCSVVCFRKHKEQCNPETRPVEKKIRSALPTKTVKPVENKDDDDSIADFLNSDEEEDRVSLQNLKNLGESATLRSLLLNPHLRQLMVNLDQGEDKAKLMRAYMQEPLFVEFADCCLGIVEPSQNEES
As to the kind of experiment: co-IP; GFP-Trap immuno-precipitation of 293T cells transfected with GFP constructs; extracts untreated or treated with RNase A; western blot with anti-SMN.

Assay [12] concerns the target T4, GFP-15.5K (UniProt P55769).
T4 sequence: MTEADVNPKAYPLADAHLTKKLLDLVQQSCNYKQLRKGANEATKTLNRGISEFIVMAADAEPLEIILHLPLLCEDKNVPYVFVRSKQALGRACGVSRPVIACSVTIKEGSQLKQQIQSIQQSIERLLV
The description is as above.

Assay [13] addresses GFP-NUFIP (293T) (human) (UniProt Q9UHK0). The description is as above.
Assay [14] concerns the target GFP-PRP31, wild type (human) (UniProt Q8WWY3). Described as above.
Assay [15] addresses mRFP–LacI–Gemin6 (UniProt Q8WXD5). As to the kind of experiment: LacI/LacO co-recruitment assay in cells; U2OS LacO cells co-transfected with GFP-NUFIP and an mRFP-LacI fusion; enrichment of GFP at the LacO spot by fluorescence microscopy.
The target in assay [16] is 3xFlag-PRP31 A216P (human) (UniProt Q8WWY3). Put plainly: co-IP; anti-Flag immuno-precipitation of 293T cells co-transfected with 3xFlag-PRP31 (wild type or mutants) and GFP-15.5K; western blot.
For assay [17], the target named is 3xFlag-PRP31 K243A-A246R (human) (UniProt Q8WWY3). Described as above.
In assay [18] the target is T1, yeast Prp31 (Prp31p), wild type (yeast). Put plainly: two-hybrid; yeast Prp31 (wild type and mutants) against Rsa1, Pih1, Rvb1, Rvb2, Hit1; CG1945 mated with Y187, diploids on -Leu-Trp-His plates containing 1.5 mM 3AT; wild-type strains. The source holds these as a separate data set.
Assay [19] deals with T2, yeast Prp31p A226P (yeast). The assay is described as above. This is another data set of the same source.
Assay [20] deals with T1, yeast Prp31 (Prp31p), wild type (yeast). As to the kind of experiment: two-hybrid; as a1 but in a yeast strain deleted for Pih1 (ΔPIH1); pACTII-yPRP31 against the indicated proteins.
Assay [21] has the same target. As to the kind of experiment: two-hybrid; as a1 but in a yeast strain deleted for Rsa1 (ΔRSA1); pACTII-yPRP31 against the indicated proteins.

Where two headings read alike, the source gives them in different places. No constants are given. Whether binding was seen depends on the method and setting. For part of these data: In cells and extracts the contact can be indirect. Some results given as binding are weak or reduced against the parent protein; the word gives no strength. For part of these data: Where a sequence is shown, tags or fusion partners need not be part of it.

In the case of “RuvBL1 (endogenous, 293T) (from UniProt Q9Y265 1-456)”, the binding result in assay [1], in [2] and in assay [3] was “binds” each time.
In the case of “NUFIP (endogenous, 293T) (from UniProt Q9UHK0 1-495)”, the binding entry in assay [1], in [2] and in [3] was “binds” throughout.
As to “Rvb2 (yeast homolog of RuvBL2) (from UniProt Q12464 1-471)”, the binding result in assay [4] and in assay [5] was “binds” throughout.
Turning to “Gemin3, recombinant, in E. coli total extract (from UniProt Q9UHI6 1-824)”, in assay [6], the binding result is reported as “binds”.
As for “NUFIP, in vitro translated (from UniProt Q9UHK0 1-495)”, the binding entry in assay [7] was “binds”.
For “Rvb1 (yeast homolog of RuvBL1) (from UniProt Q03940 1-463)”, the binding result in assay [4] and in [5] was “binds” throughout.
For “NUFIP, two-hybrid prey (pACTII-NUFIP) (from UniProt Q9UHK0 1-495)”, the binding entry in assay [8], in [9] and in [10] was “binds” in each case.
On to “SMN (endogenous, 293T) (from UniProt Q16637 1-294)”, for which the binding result was “binds weakly” in [11], “no binding” in [12], “binds” in [13] and “binds” in assay [14].
For the molecule “Gemin6, recombinant, in E. coli total extract (from UniProt Q8WXD5 1-167)”, in assay [6], the binding result is listed as “binds”.
In the case of “GFP-NUFIP (U2OS LacO cells) (from UniProt Q9UHK0 1-495)”, the binding result in assay [15] was “binds”.

B1: ZNHIT3 (endogenous, 293T) (protein, UniProt Q15649 1-155)
chain: MASLKCSTVVCVICLEKPKYRCPACRVPYCSVVCFRKHKEQCNPETRPVEKKIRSALPTKTVKPVENKDDDDSIADFLNSDEEEDRVSLQNLKNLGESATLRSLLLNPHLRQLMVNLDQGEDKAKLMRAYMQEPLFVEFADCCLGIVEPSQNEES
With B1, the binding result in assay [1], in [2] and in assay [3] was “binds” each time.

B2: GFP-15.5K (protein, UniProt P55769 1-128)
chain: MTEADVNPKAYPLADAHLTKKLLDLVQQSCNYKQLRKGANEATKTLNRGISEFIVMAADAEPLEIILHLPLLCEDKNVPYVFVRSKQALGRACGVSRPVIACSVTIKEGSQLKQQIQSIQQSIERLLV
As for B2, the binding result in assay [16] was “binds”; in [17], “no binding”.

B3: 15.5K, recombinant, in E. coli total extract (protein, UniProt P55769 1-128)
chain: MTEADVNPKAYPLADAHLTKKLLDLVQQSCNYKQLRKGANEATKTLNRGISEFIVMAADAEPLEIILHLPLLCEDKNVPYVFVRSKQALGRACGVSRPVIACSVTIKEGSQLKQQIQSIQQSIERLLV
For the molecule B3, the binding entry in [6] is “binds”.

B4: Rsa1 (yeast homolog of NUFIP) (protein, UniProt Q08932 1-381)
chain: MNYNNFENSKGDGHSRLPKPTYSGTLSDGYDESKIKRQKTDSAFNAAYSPHMYPNSPYYEGSWNTGYTPQLHHVAPHNQYFHPIQPSTQYNYTSPPNYTENYIPPVHQNISYAPALNLQKWPSSYCENTQALKNDKDYQTSISYEDVAIPTVKEIQLIEKNRGKDTFMNEISPVPSSKDQASAEPTEIPRKDPELANSNAEDDHNNLGLEDDDRDEQLESEGLGKVVLVPGTSIALITDEDVKKWREERKKMWLLKISNNKQKHMQEMGIKEDELKSQPSIFKESRKEKQFIQSIQNQVQRGNPKIDLNLKLIQREFANENSQLLDFIRELGDVGLLEYELSQQEKDVLFGSSEDNNKNHYKPNYKNRKPNLSRANFTRNK
With B4, the binding result in [18] and in [19] was “binds” throughout.

B5: Hit1 (yeast homolog of ZNHIT3) (protein, UniProt P46973 1-164)
chain: MVSSAVKCGICRGVDGKYKCPKCGVRYCSLKCYKDAAKHVHKESEQPRAGTEANVEVVNNDKIINSSLAMNKTLKTKAFDDIYQNSAELQELLKYNTVKFHLAKVYRILSSTVNDGSSGKMNSDLQKELAVNYLNTLRYGGIHYNEAIEEFCQILLDKLNAVKK
For B5, the binding result is listed as “binds” in assay [18], “no binding” in assay [19], “binds” in assay [20] and “binds” in assay [21].
